From PubChem BioAssay AID1468 (National Center for Advancing Translational Sciences (NCATS), 2008)
Values joined by “and” are separate entries in the source; they are usually repeats but may differ in a detail not shown here. Equal entries are not always repeated. In all, about 280,000 compounds went through this assay and about 1,100 (0.39%) were called active. This list was built around the results that the source calls inconclusive (neither active nor inactive); the mix of calls is not that of the screen. Calls follow the shape of the dose curve; as a rule, active = well fitted inhibition curve with a large enough effect; inconclusive = small, poorly fitted or top-dose-only effect, or effect the other way; inactive = flat fitted curve, though single readings scatter. Potencies of inconclusive entries are left out as doubtful fits.

Target: Microtubule-associated protein tau (Homo sapiens) (UniProt P10636)
UniProt P10636, sequence (P10636 whole entry, looked up): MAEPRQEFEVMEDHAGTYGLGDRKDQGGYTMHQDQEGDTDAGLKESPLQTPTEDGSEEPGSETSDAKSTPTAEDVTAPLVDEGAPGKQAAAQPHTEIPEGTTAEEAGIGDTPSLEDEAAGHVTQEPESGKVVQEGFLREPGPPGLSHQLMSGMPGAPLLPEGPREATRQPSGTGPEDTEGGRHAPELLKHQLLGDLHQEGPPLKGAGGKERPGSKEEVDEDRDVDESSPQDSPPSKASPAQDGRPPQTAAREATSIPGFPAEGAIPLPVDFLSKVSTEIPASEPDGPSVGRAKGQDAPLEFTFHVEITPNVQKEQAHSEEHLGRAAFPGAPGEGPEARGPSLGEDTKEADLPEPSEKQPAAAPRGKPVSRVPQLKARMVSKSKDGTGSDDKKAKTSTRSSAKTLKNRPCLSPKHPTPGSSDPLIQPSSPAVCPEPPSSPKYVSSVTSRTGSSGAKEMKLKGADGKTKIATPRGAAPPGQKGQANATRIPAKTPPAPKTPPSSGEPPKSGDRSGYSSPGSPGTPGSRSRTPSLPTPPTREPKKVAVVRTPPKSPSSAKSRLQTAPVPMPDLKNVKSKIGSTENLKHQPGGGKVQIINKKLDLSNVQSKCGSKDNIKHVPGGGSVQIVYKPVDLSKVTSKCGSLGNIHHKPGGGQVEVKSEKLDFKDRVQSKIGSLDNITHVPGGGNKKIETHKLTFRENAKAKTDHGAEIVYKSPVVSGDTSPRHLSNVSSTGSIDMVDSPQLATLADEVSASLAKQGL
Experiment: qHTS for Inhibitors of Tau Fibril Formation, Fluorescence Polarization; also: nearly all actives have a fitted effect of over 55% in size
Conditions: K18 P301L tau heparin fibrillization, Alexa594 FP, 6 h; series mostly up to 57.7 µM
Method in brief: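 Compound effects on tau fibrillization are measured by Alexa 594 fluorescence polarization (ex 555, em 632 nm). K18 P301L tau is used at 15 uM with 0.24 uM labeled tracer, and 20 uM heparin induces aggregation over 6 hr at 37 C.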
% is scaled to controls: 0 for no effect and ±100 for the full control effect; potency is read from the fitted curve at half-maximal effect; tags tell the direction and shape of the fitted curve.

Row | Compound | Potency | activity, negative = inhibition
1 | Cc1ccc(C(=O)Nc2ccc(C(=O)O)cc2)cc1S(=O)(=O)Nc1ccccc1 | inactive | –
2 | O=C(Nc1cccc(-c2nc3cccnc3s2)c1)C1c2ccccc2Oc2ccccc21 | inconclusive [inhibitor, single point] | –
3 | COc1cc(C(=O)NCC(=O)OC(C)C(=O)Nc2ncc(Cl)cc2Cl)cc(OC)c1OC (stereo not given) | inactive | –
4 | Cc1ccc(Cl)cc1N1CCN(C2(c3ccccc3)C(=O)c3ccccc3C2=O)CC1 | inconclusive [inhibitor, partial curve, poor fit] | –
5 | COc1cccc(NC(=O)Cn2c(=O)n(-c3cccc(OC)c3)c(=O)c3sc4ccccc4c32)c1 | inconclusive [inhibitor, single point] | –
6 | CCc1cccc(CC)c1NC(=S)NCc1ccc2[nH]c(C)cc2c1 | inconclusive [activator, single point] | –
7 | COc1ccc(S(=O)(=O)NCCOc2ccccc2)cc1OC | inactive | –
8 | COc1ccc(NS(=O)(=O)c2ccc3oc(SCc4ccc(F)cc4)nc3c2)cc1 | inconclusive [inhibitor, full curve, poor fit] | –
9 | COc1ccc(NC(=O)c2c(N)c(C(=O)c3ccc(OC)cc3)n3ccccc23)cc1 | inactive | –
10 | Cc1cc(-c2ccc(F)cc2)nc2cc(C(N)=O)nn12 | inactive | –
11 | c1ccc(CSc2nnc(-c3ccco3)c(-c3ccco3)n2)cc1 | active: 12.6 µM | –
12 | Cc1ccc(CNC(=O)c2c(-c3ccc(Br)cc3)noc2C)o1 | inactive | –
13 | CCCCCCCCCCCCCCCC[n+]1cccc2ccccc21 | inactive | –
14 | COc1ccccc1C(=O)Nc1c(C(=O)c2ccccc2)oc2ccccc12 | inconclusive [inhibitor, partial curve] | –
15 | CC1=C(C(=O)Nc2ccccc2C)C(c2cccs2)n2nc(SCc3cc(C)ccc3C)nc2N1 (stereo not given) | inactive | –
16 | COc1ccc(C2c3c(oc4cc(C)cc(C)c4c3=O)C(=O)N2Cc2ccco2)cc1OC (stereo not given) | inactive | –
17 | O=C(Nc1ccc(OC(F)(F)F)cc1)C1CCCN(S(=O)(=O)c2ccc(Br)s2)C1 (stereo not given) | inconclusive [inhibitor, single point] | –
18 | Oc1cc(-c2ccccc2)c2ccccc2c1 | inconclusive [inhibitor, partial curve, poor fit] | –
19 | O=C(Cc1ccccc1)Nc1ccc(NC(=O)c2cccs2)cc1Cl | inconclusive [inhibitor, partial curve] | –
20 | COc1ccc(C(C(=O)Nc2ccc(C(C)C)cc2)N(C)C(=O)Cc2cccs2)cc1 (stereo not given) | inactive | –
21 | CC(C)(C)c1ccc(C(=O)Nc2nc3nc(-c4ccccc4)cc(=O)n3[nH]2)cc1 | inconclusive [inhibitor, single point] | –
22 | CN(C)c1ccc(N=Nc2ccccc2C(=O)OCC(=O)N(C)C2CCCCC2)cc1 | inactive | –
23 | CN1CCN(C(=O)Cn2c(C(F)(F)F)nc3ccccc32)CC1 | inconclusive [activator, single point] | –

Row | Compound | Potency | activity, negative = inhibition
24 | O=c1n(-c2ccccc2)c(=O)n2n1CC[C@H]1/C(=N\OC[C@@H](O)COCc3ccco3)[C@H]3O[C@@H]3[C@@H](O)[C@@H]12 | – | inactive: 2.53% [at 11.6 µM] and inactive: -3.44% [at 11.6 µM]
25 | COc1ccc(OC)c(NC(=O)c2csnn2)c1 | inconclusive [inhibitor, single point] | –
26 | NC(=O)CSc1nc2c(c(=O)n1-c1ccccc1)C1(CCCCC1)Cc1ccccc1-2 | inconclusive [inhibitor, single point] | –
27 | COc1ccc(CNC(=O)c2ccc3c(c2)N(Cc2ccccc2)C(=O)c2ccccc2S3(=O)=O)cc1 | inconclusive [inhibitor, partial curve] | –
28 | O=C1c2ccccc2C(=O)c2c1cccc2-n1nnc2ccccc21 | inactive | –
29 | CCOc1cccc(C2c3c(oc4ccccc4c3=O)C(=O)N2c2nc(C)c(C(=O)OC)s2)c1 (stereo not given) | inactive | –
30 | CCOc1ccc(-c2nnn(CC(=O)NCc3ccc4c(c3)OCO4)n2)cc1 | inconclusive [inhibitor, single point] | –
31 | O=C(c1ccc(F)cc1)[C@@H]1[C@@H](C(=O)c2ccccc2)[C@@]2(C(=O)Nc3ccccc32)[C@H]2c3ccccc3C=CN12 | inconclusive [inhibitor, partial curve, poor fit] | –
32 | S=c1[nH]nc(CCCc2n[nH]c(=S)o2)o1 | inactive | –
33 | O=C(Nc1nc2ccc(F)cc2s1)C1CCN(S(=O)(=O)c2cc([N+](=O)[O-])ccc2Cl)CC1 | inconclusive [activator, partial curve] | –
34 | COc1ccccc1CNC(=O)CSC1=NCCS1 | inconclusive [inhibitor, partial curve] | –
35 | C/C(=C\CO)CCO | inactive | –
36 | Cc1ccc(C(NC(=O)N2CCCC2)C(Cl)Cl)cc1F (stereo not given) | inactive | –
37 | COc1cccc(-c2nnc3n(Cc4ccc(F)cc4)c(=O)c4ccccc4n23)c1 | inconclusive [activator, full curve] | –
38 | CCCCCc1ccc(OCCC[n+]2ccccc2)c(CCCCC)c1 | inactive | –
39 | CC1=C(C(=O)Nc2ccc(C)cc2C)C(c2ccccc2C)n2ncnc2N1 (stereo not given) | inactive | –
40 | CC(N)(Cc1ccc(O)cc1)C(=O)O (stereo not given) | inactive | –
41 | COc1cc(C2c3cc4c(cc3C(OC3OC5COC(C)O[C@@H]5C(O)C3O)C3COC(=O)C23)OCO4)cc(OC)c1O (stereo not given in full) | inactive | –
42 | CCC(=O)Nc1c(OC(=O)CC)ccc2c(C)cc(=O)oc12 | inconclusive [inhibitor, single point] | –
43 | O=C(Nc1ccc(Cl)cc1Cl)c1cc(S(=O)(=O)N2CCN(c3ccccc3F)CC2)ccc1F | inconclusive [inhibitor, single point] | –
44 | O=C(O)c1ccc(COc2c(F)c(F)cc(F)c2F)o1 | inconclusive [inhibitor, single point] | –
45 | O=C(CC1S/C(=N/N=C/c2c[nH]c3ccc(OCc4ccccc4)cc23)NC1=O)Nc1ccccc1 (stereo not given) | inconclusive [activator, full curve, poor fit] | –
